Laboratory results taken from PubChem BioAssay (NCATS).
This list was built around the results that the source calls inconclusive (neither active nor inactive); the mix of calls is not that of the screen. No potency is given beside an inconclusive call; the fits are too rough. Calls of active or inactive are those of the source. Calls come from the whole dose curve; as a rule, active = well fitted inhibition curve with a large enough effect; inconclusive = small, poorly fitted or top-dose-only effect; inactive = no such curve, though single readings can be large or run the other way.

assay: qHTS Screen of the MIPE 4.0 Collection Against Ewings Sarcoma (EW8) (AID 1259255); conditions: EW8 Ewing sarcoma viability, CellTiter-Glo, 48 h; series mostly up to 45.8 µM; note: nearly all actives have a fitted effect of over 35% in size
In short: (§1)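 CellTiter-Glo luminescence after 48 h compound exposure (titration) gave viability; percent activity used DMSO-treated cells as no inhibition and medium-only wells as full inhibition. Cells grown in RPMI/5% FBS, dosed 4 h post-seeding.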
Potency is the fitted concentration of half-maximal effect; tags give direction and shape of the fitted curve.

Structure (SMILES)	Potency
COC1CCC(C(=O)c2ccc3nc4c(cc3c2)CCCO4)CC1 (stereo not given)	inconclusive [inhibitor, partial curve]
O=c1[nH]nc(OCCCc2ccc(Cl)cc2)c(NCc2cccnc2)c1Br	active: 13.2 µM
COc1cc2ncnc(Nc3cc(Br)c(O)c(Br)c3)c2cc1OC	inconclusive [inhibitor, full curve, poor fit]
CN(c1nccc(=O)[nH]1)C1CCN(c2nc3ccccc3n2Cc2ccc(F)cc2)CC1	inconclusive [inhibitor, single point]
Cc1cc2nc3c(=O)[nH]c(=O)nc-3n(CC(O)C(O)C(O)CO)c2cc1C (stereo not given)	inactive
CC[C@]1(O)C[C@H]2CN(CCC3=c4ccccc4=N[C]3[C@@](C(=O)OC)(c3cc4c(cc3OC)N(C)[C@H]3[C@@](O)(C(N)=O)[C@H](O)[C@]5(CC)C=CCN6CC[C@]43[C@@H]65)C2)C1	inconclusive [inhibitor, full curve]
NS(=O)(=O)c1cc(Cl)c(Cl)c(S(N)(=O)=O)c1	inactive
CC(C)c1onc(-c2c(Cl)cccc2Cl)c1COc1ccc(C=Cc2cccc(C(=O)O)c2)c(Cl)c1	inactive
NCCCCNCCCN	inconclusive [inhibitor, single point]
COc1cc2ncn(-c3cc(OCc4ccccc4S(C)(=O)=O)c(C#N)s3)c2cc1OC	inactive
CC(O)C1C(=O)N2C(C(=O)O)=C(SC3CNC(C(=O)N(C)C)C3)C(C)C12 (stereo not given)	inactive
NC(=O)N1CCC(CC(=O)N2CCC([C@H]3c4ncc(Br)cc4CCc4cc(Cl)cc(Br)c43)CC2)CC1	active: 16.6 µM
COc1cc(CNC(=O)CCCCC=CC(C)C)ccc1O	active: 6.62 µM
O=C(O)CCNC(=O)c1ccc(N=Nc2ccc(O)c(C(=O)O)c2)cc1	inconclusive [inhibitor, single point]
C[C@]12C=CC(=O)C=C1CC[C@@H]1[C@@H]2[C@@H](O)C[C@@]2(C)[C@@H]1CC[C@]2(O)C(=O)CO	inconclusive [inhibitor, single point]
C[C@@]12C[C@@]3(O)O[C@@H](O1)[C@]1(COC(=O)c4ccccc4)[C@@H]3C[C@@]12O[C@@H]1O[C@H](CO)[C@@H](O)[C@H](O)[C@@H]1O	inactive
CN1CCN(c2ncc(-c3cc(Cl)cc(Cl)c3Cl)c(N)n2)CC1	inactive
C=C1c2cccc(O)c2C(O)=C2C(=O)[C@@]3(O)C(O)=C(C(N)=O)C(=O)[C@@H](N(C)C)[C@@H]3[C@@H](O)[C@H]12	active: 23.5 µM
CCN1CCCC1CNC(=O)c1cc(S(N)(=O)=O)ccc1OC (stereo not given)	inactive
Nc1nc2c(ncn2COC(CO)CO)c(=O)[nH]1	inconclusive [inhibitor, single point]

assay: qHTS Screen of the MIPE 4.0 Collection Against Ewings Sarcoma (TC32) (AID 1259256); conditions: TC32 Ewing sarcoma viability, CellTiter-Glo, 48 h; series mostly up to 45.8 µM; note: nearly all actives have a fitted effect of over 45% in size
In short: as §1

Structure (SMILES)	Potency
COC1CCC(C(=O)c2ccc3nc4c(cc3c2)CCCO4)CC1 (stereo not given)	inconclusive [inhibitor, partial curve]
O=c1[nH]nc(OCCCc2ccc(Cl)cc2)c(NCc2cccnc2)c1Br	inconclusive [inhibitor, full curve]
COc1cc2ncnc(Nc3cc(Br)c(O)c(Br)c3)c2cc1OC	active: 0.418 µM
CN(c1nccc(=O)[nH]1)C1CCN(c2nc3ccccc3n2Cc2ccc(F)cc2)CC1	inconclusive [inhibitor, partial curve, poor fit]
Cc1cc2nc3c(=O)[nH]c(=O)nc-3n(CC(O)C(O)C(O)CO)c2cc1C (stereo not given)	inconclusive [inhibitor, single point]
CC[C@]1(O)C[C@H]2CN(CCC3=c4ccccc4=N[C]3[C@@](C(=O)OC)(c3cc4c(cc3OC)N(C)[C@H]3[C@@](O)(C(N)=O)[C@H](O)[C@]5(CC)C=CCN6CC[C@]43[C@@H]65)C2)C1	inactive
NS(=O)(=O)c1cc(Cl)c(Cl)c(S(N)(=O)=O)c1	inconclusive [inhibitor, full curve, poor fit]
CC(C)c1onc(-c2c(Cl)cccc2Cl)c1COc1ccc(C=Cc2cccc(C(=O)O)c2)c(Cl)c1	inconclusive [inhibitor, partial curve, poor fit]
NCCCCNCCCN	inactive
COc1cc2ncn(-c3cc(OCc4ccccc4S(C)(=O)=O)c(C#N)s3)c2cc1OC	inconclusive [inhibitor, single point]
CC(O)C1C(=O)N2C(C(=O)O)=C(SC3CNC(C(=O)N(C)C)C3)C(C)C12 (stereo not given)	inactive
NC(=O)N1CCC(CC(=O)N2CCC([C@H]3c4ncc(Br)cc4CCc4cc(Cl)cc(Br)c43)CC2)CC1	active: 0.372 µM
COc1cc(CNC(=O)CCCCC=CC(C)C)ccc1O	inconclusive [inhibitor, partial curve]
O=C(O)CCNC(=O)c1ccc(N=Nc2ccc(O)c(C(=O)O)c2)cc1	inconclusive [inhibitor, single point]
C[C@]12C=CC(=O)C=C1CC[C@@H]1[C@@H]2[C@@H](O)C[C@@]2(C)[C@@H]1CC[C@]2(O)C(=O)CO	inactive
C[C@@]12C[C@@]3(O)O[C@@H](O1)[C@]1(COC(=O)c4ccccc4)[C@@H]3C[C@@]12O[C@@H]1O[C@H](CO)[C@@H](O)[C@H](O)[C@@H]1O	inactive
CN1CCN(c2ncc(-c3cc(Cl)cc(Cl)c3Cl)c(N)n2)CC1	inactive
C=C1c2cccc(O)c2C(O)=C2C(=O)[C@@]3(O)C(O)=C(C(N)=O)C(=O)[C@@H](N(C)C)[C@@H]3[C@@H](O)[C@H]12	inconclusive [inhibitor, partial curve, poor fit]
CCN1CCCC1CNC(=O)c1cc(S(N)(=O)=O)ccc1OC (stereo not given)	inconclusive [inhibitor, single point]
Nc1nc2c(ncn2COC(CO)CO)c(=O)[nH]1	inactive
